About 540 (0.36%) of roughly 150,000 compounds showed an effect of 50% or more. This is one part of the list.
tested on: Plasmodium falciparum; assay: Primary screen in NF54 nanoGlo assay, in single point, at 2uM, 72h; a lower Z score goes with more inhibition; format: functional, Erythrocyte; details: timepoint 72 hour

SMILES | % Inhibition [%] | Z score
CCC/C=C/c1ccc(Cn2ccnc2)cn1 | -9 | 1.46
CCOC(=O)[C@H]1CCCN(C(=O)CCc2nc3ccccc3s2)C1 | -21 | 2.98
C[C@@H](c1nc2ccccc2c(=O)[nH]1)N1CCCN(c2nc3ccccc3[nH]2)CC1 | -6 | 0.72
CC(C)n1nccc1NC(=O)CN1CCC[C@H]1c1nc(-c2ccccc2C(F)(F)F)c[nH]1 | -6 | 0.97
CC(C)(C)C(=O)NCc1cccc(OCC(F)F)c1 | 6 | -0.91
Cc1cc(C(=O)N(CC(=O)N2CCOCC2)Cc2ccccc2)no1 | 15 | -2.29
COCc1nc(C)cc(N2CC(C)(O)C2)n1 | 0 | 0.08
O=C(C1CCCC1)N1C[C@@H]2[C@@](C(F)(F)F)(CCCS2(=O)=O)C1 | -8 | 1.52
O=S1(=O)CCCC(NC(c2ccccc2)C2CCCc3ccccc32)C1 (stereo unspecified) | 3 | -0.26
COc1cc(CNS(=O)(=O)c2ccc3c(c2)C(C)(C)CN3C(=O)C(C)C)cc(OC)c1OC | 8 | -1.55
O=C(O)c1ccc(CNC2CCCCCCC2)cc1 | -14 | 1.67
O=C(c1cnn2cccnc12)N1CCC[C@@]2(C1)OCc1ccccc12 | -6 | 0.96
O=C1N[C@H](c2ccc(O)cc2)C(=O)N[C@H]1c1ccccc1 | -2 | 0.26
CN(C)c1nc2ncn3c(=O)n(CC(=O)Nc4ccc5c(c4)OCCO5)nc3c2s1 | -21 | 2.03
Cc1nc(N2CCCCC2)nc2c1CCC2 | -8 | 0.91
O=C1CN(S(=O)(=O)c2cccc3nsnc23)CCN1c1ncc(F)cn1 | 17 | -2.13
Cn1c2cn(-c3ccc(O)cc3)c(-c3ccc(Cl)cc3)c2c(=O)n1-c1ccccc1 | 1 | -0.12
Clc1ccc2c(c1)CC[C@@H]2NCc1cccnc1N1CCOCC1 | -18 | 1.63
OC1CC(C2CCCCC2)N(c2ncnc3nc[nH]c23)C1 (stereo unspecified) | 3 | -0.42
O=C(NCc1ccccn1)c1nc(-c2cnccn2)no1 | -1 | 0.13
COc1ccccc1-c1ncc(CN(C)CCC2(O)CCCC2)cn1 | -2 | 0.27
O=C(NCc1ccncc1)[C@]1(F)CCCN(Cc2ccc3c(c2)CCO3)C1 | -26 | 2.31
CC(C)c1cc(C(=O)N2CCC3(CC2)Cc2cn(nn2)CCCOc2ccc(cc2)CCNC3=O)no1 | -8 | 1.01

— ChEMBL document CHEMBL4888484, “Replenishing the malaria drug discovery pipeline: Screening and hit evaluation of the MMV Hit Generation Library 1 (HGL1) against asexual blood stage Plasmodium falciparum ,using a nano luciferase reporter read-out” (2022)
